Each structure is given as a SMILES string.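 Briefly, cells in 96-well plates were exposed to five compound concentrations for 48 h, and endpoints were estimated by linear interpolation. GI50: concentration for 50% inhibition of growth.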 The source made the active and inactive calls. No stated cut-off is given here; in the data, active = GI50 up to about 1.1 µM and inactive = higher. A value given as a limit tells only on which side of the number the result lay.

The assay concerns NCI-H322M. The experiment in a line: growth of human tumour cells (NCI), 48 h.
As for `COc1cc(/C=C/c2ccnc3ccccc23)cc(OC)c1OC`, the GI50 was inactive: 7.83 µM.

`Cn1nc(-c2ccccc2)c2c(-c3ccccc3)c3cc(Cl)ccc3nc21`: the GI50 was inactive: > 100 µM.

Regarding `Cc1c(/C=N/NC(=O)c2ccc(Cl)cc2)c(=O)n(-c2ccccc2)n1C`, the GI50 is inactive: > 100 µM.

Take `N#Cc1ccc(-n2c3ccccc3c3ccc4c(c32)C(=O)C=CC4=O)cc1`: the GI50 was inactive: 14.6 µM.

Turning to `COC12OCCN(C)C1=CC(=O)C1(C)N=NCC12` (centres undefined), the GI50 is inactive: > 100 µM. Then `CC1(C)OC2C(=O)C=C(COCc3ccccc3)C2O1` (centres undefined), with inactive: 26.9 µM; and `COC(=O)CC(CNC(=O)OCc1ccccc1)OCc1ccc(OC)cc1` (centres undefined), with inactive: > 100 µM. As to `O=C(/C=C/c1c[nH]c2ccccc12)c1ccccc1O`, the GI50 was inactive: 9.73 µM. Then `CCP(=O)(OC)C1=CCN(C(=O)OCC[Si](C)(C)C)CC1` (centres undefined), with inactive: > 100 µM. Then `CC1(C)C2CCC1(C)[C@H](n1c(=O)n([C@@H]3CC4CCC3(C)C4(C)C)c(=O)n([C@@H]3CC4CCC3(C)C4(C)C)c1=O)C2`, with inactive: > 100 µM; and `COC(=O)C1=C(CCCCO[Si](C)(C)C(C)(C)C)NC(=O)N2[C@@H](CCOCc3ccccc3)CC[C@H]12`, with inactive: 40.6 µM. Then `CCOc1ccc2c(c1)NC(=O)C(C1OC(c3ccccc3)=CC1=O)S2` (centres undefined), with inactive: 41.5 µM. `COC(=O)C(=O)C(C(=O)C(=O)Nc1ccc([N+](=O)[O-])cc1)c1nc2ccccc2nc1O` (centres undefined): the GI50 is inactive: > 100 µM. Then `N/C(=N\NC(=O)c1nc2ccccc2s1)c1ccccn1`, with inactive: 4.74 µM.

`CC1(C)CC(=O)c2c(N)n[nH]c2C1`: the GI50 is inactive: > 100 µM.

As for `COc1ccc(C(=O)C2=NON3OC23C(=O)c2ccc(OC)cc2)cc1` (centres undefined), the GI50 is inactive: 33.7 µM.

Consider `COC(=O)c1ccccc1/C=C1\Cc2c(C)cc(C)cc2C1=O`, for which the GI50 was inactive: > 100 µM. Then `CCOC(=O)C1(N)CCc2[nH][nH]c(=O)c2C1` (centres undefined), with inactive: > 100 µM. As to `CCCC[S+]([O-])CCC(N)P(=O)(O)O` (centres undefined), the GI50 was inactive: > 100 µM. Then `CC1=C(C)CC(C#N)(C#N)C(C#N)(C#N)C1`, with inactive: > 10 µM; and `CN(C)CCNC(=O)Cn1ccc(=O)c2c([N+](=O)[O-])cccc21`, with inactive: > 100 µM.

With `O=c1[nH]cc(F)c(=O)n1C1OC(CO)C(O)C1O` (centres undefined), the GI50 was inactive: > 100 µM. `c1ccc(-c2csc3c2-n2cccc2C3N2CCCC2)cc1` (centres undefined): the GI50 was inactive: > 100 µM.

In the case of `Cc1c(C(=O)c2ccccc2C(=O)O)c2ccccc2n1C`, the GI50 is inactive: > 100 µM.

Take `CCOC(=O)c1nc2ccc(C(F)(F)F)cc2nc1Oc1ccc(C#N)cc1`: the GI50 was inactive: 36.8 µM.

`CC(=O)NS(=O)(=O)c1ccc(NCc2cccc3c(=O)c4ccc(Cl)cc4oc23)cc1`: the GI50 is inactive: 68.5 µM. Regarding `CC(=O)C1=C(C)N2C(=NC3=C(CCc4ccccc43)C2c2ccc(Cl)cc2)S1` (centres undefined), the GI50 is inactive: > 47.4 µM. `O=c1n(-c2ccccc2)c(=O)n2n1C1Cc3ccccc3C12` (centres undefined): the GI50 was inactive: > 100 µM.

Take `COC(=O)c1cc2c(cc1O)[C@@H](NC(C)=O)CCc1cc(OC)c(OC)c(OC)c1-2`: the GI50 was active: 0.042 µM. Then `COc1cc2nc(Cl)nc(NS(=O)(=O)c3cc4ccccc4s3)c2cc1OC`, with inactive: 19.6 µM. Then `CCOC(=O)c1nc2ccccc2nc1Oc1cc(OC)cc(OC)c1`, with inactive: > 100 µM. Then `CCNc1cc2c3c(c1)CCN3CCC2`, with inactive: > 10 µM; and `C[C@H]1[C@@H](c2ccccc2)O[B-](c2ccccc2)(c2ccccc2)[N+]1(C)C`, with inactive: > 100 µM; and `Brc1ccc(/N=N/N2CCCC2)cc1`, with inactive: > 100 µM.

Values taken from ChEMBL document CHEMBL1201862, “PubChem BioAssay data set” (2004).
